# Assay results reported in the supplement of paper PMC8728848.
# The other results are listed elsewhere or left out.
# B1: Pp2-A2 (Arabidopsis thaliana), Q07098 (protein)
# chain: MPSNGDLDRQIEQLMECKPLSEADVRTLCDQARAILVEEYNVQPVKCPVTVCGDIHGQFYDLIELFRIGGNAPDTNYLFMGDYVDRGYYSVETVSLLVALKVRYRDRLTILRGNHESRQITQVYGFYDECLRKYGNANVWKYFTDLFDYLPLTALIESQVFCLHGGLSPSLDTLDNIRSLDRIQEVPHEGPMCDLLWSDPDDRCGWGISPRGAGYTFGQDIAAQFNHNNGLSLISRAHQLVMEGFNWCQDKNVVTVFSAPNYCYRCGNMAAILEIGENMEQNFLQFDPAPRQVEPDTTRKTPDYFL
# Columns and labels:
# Assay in all cases: glycan array binding signal (z-score within array); higher = stronger binding
# Conditions in all cases: glycan notation: IUPAC condensed, linker removed
# [1] = target: Fuc(a1-3)[Gal3S(b1-4)]GlcNAc
# In short: (§1)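 The binding signal is a Z-score computed within each array. Data were drawn from 3228 arrays in the Consortium for Functional Glycomics database, restricted to those with a known protein sequence. Scores were averaged over arrays of the same protein sequence at different concentrations or buffers, and over linkers, and negative values can be taken as non-binding.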
# [2] = target: Fuc(a1-3)[Gal3S(b1-4)]GlcNAc6S
# In short: as §1
# [3] = target: Fuc(a1-3)[GalNAc(b1-4)]GlcNAc
# In short: as §1
# Fuc(a1-4)GlcNAc = target: Fuc(a1-4)GlcNAc
# In short: as §1
# Fuc(b1-3)GlcNAc = target: Fuc(b1-3)GlcNAc
# In short: as §1
# Gal(a1-2)Gal = target: Gal(a1-2)Gal
# In short: as §1
# Gal(a1-3)Gal = target: Gal(a1-3)Gal
# In short: as §1
# Gal(a1-3)Gal(b1-3)GlcNAc = target: Gal(a1-3)Gal(b1-3)GlcNAc
# In short: as §1
# [4] = target: Gal(a1-3)Gal(b1-3)GlcNAc(b1-2)Man(a1-3)[Gal(a1-3)Gal(b1-3)GlcNAc(b1-2)Man(a1-6)]Man(b1-4)GlcNAc(b1-4)GlcNAc
# In short: as §1
# [5] = target: Gal(a1-3)Gal(b1-3)[Fuc(a1-4)]GlcNAc(b1-2)Man(a1-3)[Gal(a1-3)Gal(b1-3)[Fuc(a1-4)]GlcNAc(b1-2)Man(a1-6)]Man(b1-4)GlcNAc(b1-4)GlcNAc
# In short: as §1
# Gal(a1-3)Gal(b1-4)Glc = target: Gal(a1-3)Gal(b1-4)Glc
# In short: as §1
# Gal(a1-3)Gal(b1-4)GlcNAc = target: Gal(a1-3)Gal(b1-4)GlcNAc
# In short: as §1
# [6] = target: Gal(a1-3)Gal(b1-4)GlcNAc(b1-3)GalNAc
# In short: as §1
# [7] = target: Gal(a1-3)Gal(b1-4)[Fuc(a1-3)]GlcNAc
# In short: as §1
# [8] = target: Gal(a1-3)Gal(b1-4)[Fuc(a1-3)]GlcNAc(b1-2)Man(a1-3)[Gal(a1-3)Gal(b1-4)[Fuc(a1-3)]GlcNAc(b1-2)Man(a1-6)]Man(b1-4)GlcNAc(b1-4)GlcNAc
# In short: as §1
# Gal(a1-3)GalNAc = target: Gal(a1-3)GalNAc
# In short: as §1
# [9] = target: Gal(a1-3)[Gal(a1-4)]Gal(b1-4)GlcNAc
# In short: as §1
# [10] = target: Gal(a1-4)Gal(b1-3)GlcNAc(b1-2)Man(a1-3)[Gal(a1-4)Gal(b1-3)GlcNAc(b1-2)Man(a1-6)]Man(b1-4)GlcNAc(b1-4)GlcNAc
# In short: as §1
# Gal(a1-4)Gal(b1-4)Glc = target: Gal(a1-4)Gal(b1-4)Glc
# In short: as §1
# Gal(a1-4)Gal(b1-4)GlcNAc = target: Gal(a1-4)Gal(b1-4)GlcNAc
# In short: as §1
# [11] = target: Gal(a1-4)Gal(b1-4)GlcNAc(b1-2)Man(a1-3)[Gal(a1-4)Gal(b1-4)GlcNAc(b1-2)Man(a1-6)]Man(b1-4)GlcNAc(b1-4)GlcNAc
# In short: as §1
# [12] = target: Gal(a1-4)Gal(b1-4)GlcNAc(b1-3)Gal(b1-4)Glc
# In short: as §1
# Gal(a1-4)GlcNAc = target: Gal(a1-4)GlcNAc
# In short: as §1
# Gal(a1-6)Glc = target: Gal(a1-6)Glc
# In short: as §1
# Gal(b1-2)Gal = target: Gal(b1-2)Gal
# In short: as §1
# Gal(b1-3)Gal = target: Gal(b1-3)Gal
# In short: as §1
# Gal(b1-3)Gal(b1-4)GlcNAc = target: Gal(b1-3)Gal(b1-4)GlcNAc
# In short: as §1
# [13] = target: Gal(b1-3)Gal(b1-4)GlcNAc(b1-2)Man(a1-3)[Gal(b1-3)Gal(b1-4)GlcNAc(b1-2)Man(a1-6)]Man(b1-4)GlcNAc(b1-4)GlcNAc
# In short: as §1
# Gal(b1-3)GalNAc = target: Gal(b1-3)GalNAc
# In short: as §1
# [14] = target: Gal(b1-3)GalNAc(a1-3)[Fuc(a1-2)]Gal(b1-4)Glc
# In short: as §1
# [15] = target: Gal(b1-3)GalNAc(a1-3)[Fuc(a1-2)]Gal(b1-4)GlcNAc
# In short: as §1
# [16] = target: Gal(b1-3)GalNAc(b1-3)Gal(a1-4)Gal(b1-4)Glc
# In short: as §1
# [17] = target: Gal(b1-3)GalNAc(b1-4)Gal(b1-4)Glc
# In short: as §1
# [18] = target: Gal(b1-3)GalNAc(b1-4)[Neu5Ac(a2-3)]Gal(b1-4)Glc
# In short: as §1
# Gal(b1-3)GlcNAc = target: Gal(b1-3)GlcNAc
# In short: as §1
# [19] = target: Gal(b1-3)GlcNAc(a1-6)Gal(b1-4)GlcNAc
# In short: as §1
# [20] = target: Gal(b1-3)GlcNAc(b1-2)Man(a1-3)[Gal(b1-3)GlcNAc(b1-2)Man(a1-6)]Man(b1-4)GlcNAc(b1-4)GlcNAc
# In short: as §1
# [21] = target: Gal(b1-3)GlcNAc(b1-2)Man(a1-3)[Gal(b1-3)GlcNAc(b1-2)Man(a1-6)]Man(b1-4)GlcNAc(b1-4)[Fuc(a1-6)]GlcNAc
# In short: as §1
# [22] = target: Gal(b1-3)GlcNAc(b1-3)Gal(b1-3)GlcNAc
# In short: as §1
# [23] = target: Gal(b1-3)GlcNAc(b1-3)Gal(b1-4)Glc
# In short: as §1
# [24] = target: Gal(b1-3)GlcNAc(b1-3)Gal(b1-4)GlcNAc
# In short: as §1
# [25] = target: Gal(b1-3)GlcNAc(b1-3)Gal(b1-4)GlcNAc(b1-6)[Gal(b1-3)GlcNAc(b1-3)]Gal(b1-4)Glc
# In short: as §1
# [26] = target: Gal(b1-3)GlcNAc(b1-3)Gal(b1-4)[Fuc(a1-3)]GlcNAc(b1-6)[Gal(b1-3)GlcNAc(b1-3)]Gal(b1-4)Glc
# In short: as §1
# [27] = target: Gal(b1-3)GlcNAc(b1-3)GalNAc
# In short: as §1
# [28] = target: Gal(b1-3)GlcNAc(b1-6)Gal(b1-4)GlcNAc
# In short: as §1
binder,measurement,setting,value
B1,glycan array binding signal (z-score),[1],-0.461
same,glycan array binding signal (z-score),[2],4.09
same,glycan array binding signal (z-score),[3],-0.38
same,glycan array binding signal (z-score),Fuc(a1-4)GlcNAc,-0.494
same,glycan array binding signal (z-score),Fuc(b1-3)GlcNAc,-0.497
same,glycan array binding signal (z-score),Gal(a1-2)Gal,-0.488
same,glycan array binding signal (z-score),Gal(a1-3)Gal,-0.44
same,glycan array binding signal (z-score),Gal(a1-3)Gal(b1-3)GlcNAc,0.174
same,glycan array binding signal (z-score),[4],0.909
same,glycan array binding signal (z-score),[5],1.26
same,glycan array binding signal (z-score),Gal(a1-3)Gal(b1-4)Glc,0.067
same,glycan array binding signal (z-score),Gal(a1-3)Gal(b1-4)GlcNAc,-0.481
same,glycan array binding signal (z-score),[6],-0.431
same,glycan array binding signal (z-score),[7],-0.568
same,glycan array binding signal (z-score),[8],-0.298
same,glycan array binding signal (z-score),Gal(a1-3)GalNAc,-0.326
same,glycan array binding signal (z-score),[9],-0.228
same,glycan array binding signal (z-score),[10],-0.249
same,glycan array binding signal (z-score),Gal(a1-4)Gal(b1-4)Glc,0.09
same,glycan array binding signal (z-score),Gal(a1-4)Gal(b1-4)GlcNAc,-0.667
same,glycan array binding signal (z-score),[11],-0.565
same,glycan array binding signal (z-score),[12],-0.404
same,glycan array binding signal (z-score),Gal(a1-4)GlcNAc,-0.833
same,glycan array binding signal (z-score),Gal(a1-6)Glc,0.298
same,glycan array binding signal (z-score),Gal(b1-2)Gal,0.056
same,glycan array binding signal (z-score),Gal(b1-3)Gal,-0.297
same,glycan array binding signal (z-score),Gal(b1-3)Gal(b1-4)GlcNAc,-0.29
same,glycan array binding signal (z-score),[13],0.268
same,glycan array binding signal (z-score),Gal(b1-3)GalNAc,-0.192
same,glycan array binding signal (z-score),[14],-0.465
same,glycan array binding signal (z-score),[15],-0.096
same,glycan array binding signal (z-score),[16],-0.113
same,glycan array binding signal (z-score),[17],-0.181
same,glycan array binding signal (z-score),[18],-0.205
same,glycan array binding signal (z-score),Gal(b1-3)GlcNAc,-0.517
same,glycan array binding signal (z-score),[19],-0.59
same,glycan array binding signal (z-score),[20],0.577
same,glycan array binding signal (z-score),[21],0.587
same,glycan array binding signal (z-score),[22],-0.311
same,glycan array binding signal (z-score),[23],-0.239
same,glycan array binding signal (z-score),[24],-0.072
same,glycan array binding signal (z-score),[25],-0.487
same,glycan array binding signal (z-score),[26],-0.514
same,glycan array binding signal (z-score),[27],-0.25
same,glycan array binding signal (z-score),[28],-0.856
